Key:
Experiment in all cases: flow cytometry on transgenic cells
[1] = target: T1, mutant human IL-5Ralpha protein comprising the I61K amino acid substitution (human, UniProt Q01344 21-420)
T1 construct: On transgenic cells; also called knock out-I61
T1 sequence: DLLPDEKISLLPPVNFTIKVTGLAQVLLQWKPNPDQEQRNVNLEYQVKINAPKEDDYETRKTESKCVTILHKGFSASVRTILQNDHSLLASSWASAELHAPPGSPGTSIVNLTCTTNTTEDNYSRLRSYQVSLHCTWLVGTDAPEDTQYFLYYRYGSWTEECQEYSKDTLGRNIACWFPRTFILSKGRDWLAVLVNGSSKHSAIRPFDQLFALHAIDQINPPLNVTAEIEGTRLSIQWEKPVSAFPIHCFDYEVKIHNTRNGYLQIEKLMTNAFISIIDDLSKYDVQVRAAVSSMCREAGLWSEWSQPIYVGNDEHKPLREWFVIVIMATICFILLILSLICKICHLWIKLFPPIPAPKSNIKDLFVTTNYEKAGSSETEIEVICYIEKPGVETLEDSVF

[2] = target: T2, mouse IL-5Ralpha protein (mouse, UniProt P21183 18-415)
T2 construct: also called mouse IL-5Ralpha receptor
T2 sequence: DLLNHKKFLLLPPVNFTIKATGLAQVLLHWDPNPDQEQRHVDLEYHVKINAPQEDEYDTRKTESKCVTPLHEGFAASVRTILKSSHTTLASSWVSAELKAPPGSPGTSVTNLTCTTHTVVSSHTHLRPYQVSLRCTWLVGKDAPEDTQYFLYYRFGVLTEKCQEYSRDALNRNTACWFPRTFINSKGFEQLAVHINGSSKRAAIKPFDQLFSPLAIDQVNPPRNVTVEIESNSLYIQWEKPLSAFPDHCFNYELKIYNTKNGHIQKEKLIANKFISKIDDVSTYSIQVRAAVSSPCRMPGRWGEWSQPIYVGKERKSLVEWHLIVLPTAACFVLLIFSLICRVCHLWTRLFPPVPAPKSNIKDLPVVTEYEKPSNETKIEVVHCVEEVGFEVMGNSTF

[3] = target: T3, mutant human IL-5Ralpha protein comprising the K53Q, D56E, E58D, I61K amino acid substitutions (human, UniProt Q01344 21-420)
T3 construct: On transgenic cells; also called knock out-KDEI
T3 chain: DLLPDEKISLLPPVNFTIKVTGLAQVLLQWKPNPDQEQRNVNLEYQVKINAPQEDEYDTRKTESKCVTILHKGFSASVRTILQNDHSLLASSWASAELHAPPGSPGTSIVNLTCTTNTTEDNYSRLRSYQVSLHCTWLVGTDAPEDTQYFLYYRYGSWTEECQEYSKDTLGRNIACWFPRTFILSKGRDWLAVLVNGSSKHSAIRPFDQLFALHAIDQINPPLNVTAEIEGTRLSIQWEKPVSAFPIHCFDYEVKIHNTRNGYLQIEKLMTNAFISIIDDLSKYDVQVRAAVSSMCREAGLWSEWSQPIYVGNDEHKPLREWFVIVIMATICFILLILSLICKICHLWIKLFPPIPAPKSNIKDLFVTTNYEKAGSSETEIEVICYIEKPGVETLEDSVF

binding result [1]: no binding
binding result [2]: no binding
binding result [3]: no binding
B1: MEDI-563, humanized afucosylated IgG1 anti-IL-5R alpha chain monoclonal antibody (antibody)
heavy: EVQLVQSGAEVKKPGASVKVSCKASGYTFTSYVIHWVRQRPGQGLAWMGYINPYNDGTKYNERFKGKVTITSDRSTSTVYMELSSLRSEDTAVYLCGREGIRYYGLLGDYWGQGTLVTVSS[gap - human IgG1 constant region]
light: DIQMTQSPSSLSASVGDRVTITCGTSEDIINYLNWYQQKPGKAPKLLIYHTSRLQSGVPSRFSGSGSGTDFTLTISSLQPEDFATYYCQQGYTLPYTFGQGTKVEIKRTVAAPSVFIFPPSDEQLKSGTASVVCLLNNFYPREAKVQWKVDNALQSGNSQESVTEQDSKDSTYSLSSTLTLSKADYEKHKVYACEVTHQGLSSPVTKSFNRGEC
modifications: Fc N-glycan without fucose (afucosylated, Potelligent); the letters cannot carry it.
notes: Humanized, afucosylated IgG1 (Potelligent technology); also called BIW-8405; copies: 2 + 2
